No constants are given. Whether binding was seen depends on the method and setting. In cells and extracts the contact can be indirect. Some entries that bind do so weakly or less than the wild type. Sequences can lack the tags named with a protein.
How the values were obtained:
[1] = biological target: T1, IAA8-cYFP (Arabidopsis thaliana) (UniProt Q38826); assay: split reporter; BiFC; ARF-nYFP fusions or nYFP-GUS and IAA8-cYFP transiently co-expressed in Arabidopsis mesophyll protoplasts with NLS-tdTomato; confocal microscopy 20-24 h after transfection
T1 sequence: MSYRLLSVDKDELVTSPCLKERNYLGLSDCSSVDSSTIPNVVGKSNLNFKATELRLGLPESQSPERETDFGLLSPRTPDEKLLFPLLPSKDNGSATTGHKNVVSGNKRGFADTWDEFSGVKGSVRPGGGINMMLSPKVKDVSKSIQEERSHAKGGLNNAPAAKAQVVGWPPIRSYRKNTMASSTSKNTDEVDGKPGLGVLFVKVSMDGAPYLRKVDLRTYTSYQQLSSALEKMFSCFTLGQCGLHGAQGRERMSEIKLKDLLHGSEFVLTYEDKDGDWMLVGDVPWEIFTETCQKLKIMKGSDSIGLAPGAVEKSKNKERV

Protein sequences, listed by entry. Tags and fused reporters are not part of them.
UniProt P05804: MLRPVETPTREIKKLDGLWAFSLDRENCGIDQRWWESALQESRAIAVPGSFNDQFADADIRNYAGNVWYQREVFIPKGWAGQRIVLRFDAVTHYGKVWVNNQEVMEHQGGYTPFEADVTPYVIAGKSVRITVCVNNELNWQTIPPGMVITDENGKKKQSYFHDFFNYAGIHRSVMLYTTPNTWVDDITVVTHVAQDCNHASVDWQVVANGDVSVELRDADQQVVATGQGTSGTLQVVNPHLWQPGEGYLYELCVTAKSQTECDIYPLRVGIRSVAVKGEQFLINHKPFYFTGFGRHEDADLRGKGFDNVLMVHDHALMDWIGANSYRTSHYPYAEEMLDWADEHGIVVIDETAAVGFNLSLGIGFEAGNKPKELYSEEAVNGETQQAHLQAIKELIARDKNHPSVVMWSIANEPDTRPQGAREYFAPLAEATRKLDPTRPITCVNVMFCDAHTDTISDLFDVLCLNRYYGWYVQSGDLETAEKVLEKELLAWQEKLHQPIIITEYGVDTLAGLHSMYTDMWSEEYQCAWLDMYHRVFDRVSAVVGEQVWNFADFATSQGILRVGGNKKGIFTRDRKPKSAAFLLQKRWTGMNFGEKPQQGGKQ

[2] = biological target: T2, cYFP-TIR1 (Arabidopsis thaliana) (UniProt Q570C0); assay: split reporter; BiFC; nYFP fusions and cYFP-TIR1 transiently co-expressed in Arabidopsis mesophyll protoplasts with NLS-tdTomato; 10 uM IAA added 30-60 min before confocal microscopy, 20-24 h after transfection
T2 sequence: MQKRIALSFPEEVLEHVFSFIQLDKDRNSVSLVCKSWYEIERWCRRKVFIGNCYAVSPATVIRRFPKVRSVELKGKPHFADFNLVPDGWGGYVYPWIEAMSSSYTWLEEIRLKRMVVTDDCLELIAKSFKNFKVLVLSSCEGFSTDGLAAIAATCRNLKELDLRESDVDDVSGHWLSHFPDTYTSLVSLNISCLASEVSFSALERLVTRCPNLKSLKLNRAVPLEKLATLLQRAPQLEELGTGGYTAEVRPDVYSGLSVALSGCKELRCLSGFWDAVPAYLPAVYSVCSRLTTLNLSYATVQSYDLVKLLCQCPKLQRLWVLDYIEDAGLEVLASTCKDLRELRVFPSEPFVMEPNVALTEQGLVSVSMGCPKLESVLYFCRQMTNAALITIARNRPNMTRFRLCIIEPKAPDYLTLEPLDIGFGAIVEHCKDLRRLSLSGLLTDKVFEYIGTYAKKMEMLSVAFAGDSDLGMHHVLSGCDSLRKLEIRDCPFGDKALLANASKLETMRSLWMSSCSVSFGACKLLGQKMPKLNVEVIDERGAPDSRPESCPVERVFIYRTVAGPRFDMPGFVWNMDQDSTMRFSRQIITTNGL

[3] = biological target: T3, IAA8-cYFP (Arabidopsis thaliana), Q38826; assay: split reporter; BiFC; ARF-nYFP fusions or nYFP-GUS and IAA8-cYFP transiently co-expressed in Arabidopsis mesophyll protoplasts with NLS-tdTomato; confocal microscopy 20-24 h after transfection; conditions: remark: other sources report otherwise
T3 chain: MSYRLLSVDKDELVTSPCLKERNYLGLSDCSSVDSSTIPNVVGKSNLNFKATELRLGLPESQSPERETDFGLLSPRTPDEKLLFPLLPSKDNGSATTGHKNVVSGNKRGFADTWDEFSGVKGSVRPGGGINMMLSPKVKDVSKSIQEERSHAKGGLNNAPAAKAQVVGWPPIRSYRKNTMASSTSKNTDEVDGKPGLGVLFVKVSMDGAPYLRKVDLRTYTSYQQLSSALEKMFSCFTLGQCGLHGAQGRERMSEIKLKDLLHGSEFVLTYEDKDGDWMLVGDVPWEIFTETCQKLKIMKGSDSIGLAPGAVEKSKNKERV

In the case of “nYFP-GUS (from UniProt P05804 1-603) (enzyme)”, the binding [1] is reported as “no binding” and the binding [2] is reported as “no binding”.

B1: ARF4-nYFP (protein, UniProt Q9ZTX9 1-788)
chain: MEFDLNTEIAEVEEEENDDVGVGVGGGTRIDKGRLGISPSSSSSCSSGSSSSSSSTGSASSIYSELWHACAGPLTCLPKKGNVVVYFPQGHLEQDAMVSYSSPLEIPKFDLNPQIVCRVVNVQLLANKDTDEVYTQVTLLPLQEFSMLNGEGKEVKELGGEEERNGSSSVKRTPHMFCKTLTASDTSTHGGFSVPRRAAEDCFAPLDYKQQRPSQELIAKDLHGVEWKFRHIYRGQPRRHLLTTGWSIFVSQKNLVSGDAVLFLRDEGGELRLGIRRAARPRNGLPDSIIEKNSCSNILSLVANAVSTKSMFHVFYSPRATHAEFVIPYEKYITSIRSPVCIGTRFRMRFEMDDSPERRCAGVVTGVCDLDPYRWPNSKWRCLLVRWDESFVSDHQERVSPWEIDPSVSLPHLSIQSSPRPKRPWAGLLDTTPPGNPITKRGGFLDFEESVRPSKVLQGQENIGSASPSQGFDVMNRRILDFAMQSHANPVLVSSRVKDRFGEFVDATGVNPACSGVMDLDRFPRVLQGQEICSLKSFPQFAGFSPAAAPNPFAYQANKSSYYPLALHGIRSTHVPYQNPYNAGNQSSGPPSRAINFGEETRKFDAQNEGGLPNNVTADLPFKIDMMGKQKGSELNMNASSGCKLFGFSLPVETPASKPQSSSKRICTKVHKQGSQVGRAIDLSRLNGYDDLLMELERLFNMEGLLRDPEKGWRILYTDSENDMMVVGDDPWHDFCNVVWKIHLYTKEEVENANDDNKSCLEQAALMMEASKSSSVSQPDSSPTITRV
In the case of B1, the binding [1] is reported as “binds”.

B2: ARF5-nYFP (protein, UniProt P93024 1-902)
chain: MMASLSCVEDKMKTSCLVNGGGTITTTTSQSTLLEEMKLLKDQSGTRKPVINSELWHACAGPLVCLPQVGSLVYYFSQGHSEQVAVSTRRSATTQVPNYPNLPSQLMCQVHNVTLHADKDSDEIYAQMSLQPVHSERDVFPVPDFGMLRGSKHPTEFFCKTLTASDTSTHGGFSVPRRAAEKLFPPLDYSAQPPTQELVVRDLHENTWTFRHIYRGQPKRHLLTTGWSLFVGSKRLRAGDSVLFIRDEKSQLMVGVRRANRQQTALPSSVLSADSMHIGVLAAAAHATANRTPFLIFYNPRACPAEFVIPLAKYRKAICGSQLSVGMRFGMMFETEDSGKRRYMGTIVGISDLDPLRWPGSKWRNLQVEWDEPGCNDKPTRVSPWDIETPESLFIFPSLTSGLKRQLHPSYFAGETEWGSLIKRPLIRVPDSANGIMPYASFPSMASEQLMKMMMRPHNNQNVPSFMSEMQQNIVMGNGGLLGDMKMQQPLMMNQKSEMVQPQNKLTVNPSASNTSGQEQNLSQSMSAPAKPENSTLSGCSSGRVQHGLEQSMEQASQVTTSTVCNEEKVNQLLQKPGASSPVQADQCLDITHQIYQPQSDPINGFSFLETDELTSQVSSFQSLAGSYKQPFILSSQDSSAVVLPDSTNSPLFHDVWDTQLNGLKFDQFSPLMQQDLYASQNICMSNSTTSNILDPPLSNTVLDDFCAIKDTDFQNHPSGCLVGNNNTSFAQDVQSQITSASFADSQAFSRQDFPDNSGGTGTSSSNVDFDDCSLRQNSKGSSWQKIATPRVRTYTKVQKTGSVGRSIDVTSFKDYEELKSAIECMFGLEGLLTHPQSSGWKLVYVDYESDVLLVGDDPWEEFVGCVRCIRILSPTEVQQMSEEGMKLLNSAGINDLKTSVS
With B2 the binding [1] was “binds”.

B3: ARF11-nYFP, Q9ZPY6 1-622 (protein)
chain: MSQTSLEPLIISIIKLQILQLWLKLIAVGWNLGSNDDELYTELWKACAGPLVEVPRYGERVFYFPQGHMEQLVASTNQGVVDQEIPVFNLPPKILCRVLSVTLKAEHETDEVYAQITLQPEEDQSEPTSLDPPLVEPAKPTVDSFVKILTASDTSTHGGFSVLRKHATECLPSLDMTQPTPTQELVARDLHGYEWRFKHIFRGQPRRHLLTTGWSTFVTSKRLVAGDAFVFLRGETGDLRVGVRRLAKQQSTMPASVISSQSMRLGVLATASHAVTTTTIFVVFYKPRISQFIISVNKYMMAMKNGFSLGMRYRMRFEGEESPERIFTGTIIGSGDLSSQWPASKWRSLQIQWDEPSSIQRPNKVSPWEIEPFSPSALTPTPTQQQSKSKRSRPISEITGSPVASSFLSSFSQSHESNPSVKLLFQDPATERNSNKSVFSSGLQCKITEAPVTSSCRLFGFDLTSKPASATIPHDKQLISVDSNISDSTTKCQDPNSSNSPKEQKQQTSTRSRIKVQMQGTAVGRAVDLTLLRSYDELIKELEKMFEIEGELSPKDKWAIVFTDDEGDRMLVGDDPWNEFCKMAKKLFIYPSDEVKKMRSKSLLGDKGTIVNLESDQRTVHV
In the case of B3, the binding [3] is reported as “binds”.

B4: ARF16-nYFP (protein, UniProt Q93YR9 1-670)
chain: MINVMNPMKGGTEKGLDPQLWHACAGGMVRMPPMNSKVFYFPQGHAENAYDCVDFGNLPIPPMVLCRVLAIKYMADAESDEVFAKLRLIPLKDDEYVDHEYGDGEDSNGFESNSEKTPSFAKTLTQSDANNGGGFSVPRYCAETIFPRLDYNAEPPVQTILAKDVHGDVWKFRHIYRGTPRRHLLTTGWSNFVNQKKLVAGDSIVFMRAENGDLCVGIRRAKRGGIGNGPEYSAGWNPIGGSCGYSSLLREDESNSLRRSNCSLADRKGKVTAESVIEAATLAISGRPFEVVYYPRASTSEFCVKALDARAAMRIPWCSGMRFKMAFETEDSSRISWFMGTVSAVNVSDPIRWPNSPWRLLQVAWDEPDLLQNVKRVNPWLVELVSNVHPIPLTSFSPPRKKMRLPQHPDYNNLINSIPVPSFPSNPLIRSSPLSSVLDNVPVGLQGARHNAHQYYGLSSSDLHHYYLNRPPPPPPPSSLQLSPSLGLRNIDTKNEKGFCFLTMGTTPCNDTKSKKSHIVLFGKLILPEEQLSEKGSTDTANIEKTQISSGGSNQNGVAGREFSSSDEGSPCSKKVHDASGLETGHCKVFMESDDVGRTLDLSVLGSYEELSRKLSDMFGIKKSEMLSSVLYRDASGAIKYAGNEPFSEFLKTARRLTILTEQGSESVVV
B4 was tested, and the binding [1] was “binds”.

B5: ARF19-nYFP (protein, UniProt Q8RYC8 1-1086)
chain: MKAPSNGFLPSSNEGEKKPINSQLWHACAGPLVSLPPVGSLVVYFPQGHSEQVAASMQKQTDFIPNYPNLPSKLICLLHSVTLHADTETDEVYAQMTLQPVNKYDREALLASDMGLKLNRQPTEFFCKTLTASDTSTHGGFSVPRRAAEKIFPPLDFSMQPPAQEIVAKDLHDTTWTFRHIYRGQPKRHLLTTGWSVFVSTKRLFAGDSVLFVRDEKSQLMLGIRRANRQTPTLSSSVISSDSMHIGILAAAAHANANSSPFTIFFNPRASPSEFVVPLAKYNKALYAQVSLGMRFRMMFETEDCGVRRYMGTVTGISDLDPVRWKGSQWRNLQVGWDESTAGDRPSRVSIWEIEPVITPFYICPPPFFRPKYPRQPGMPDDELDMENAFKRAMPWMGEDFGMKDAQSSMFPGLSLVQWMSMQQNNPLSGSATPQLPSALSSFNLPNNFASNDPSKLLNFQSPNLSSANSQFNKPNTVNHISQQMQAQPAMVKSQQQQQQQQQQHQHQQQQLQQQQQLQMSQQQVQQQGIYNNGTIAVANQVSCQSPNQPTGFSQSQLQQQSMLPTGAKMTHQNINSMGNKGLSQMTSFAQEMQFQQQLEMHNSSQLLRNQQEQSSLHSLQQNLSQNPQQLQMQQQSSKPSPSQQLQLQLLQKLQQQQQQQSIPPVSSSLQPQLSALQQTQSHQLQQLLSSQNQQPLAHGNNSFPASTFMQPPQIQVSPQQQGQMSNKNLVAAGRSHSGHTDGEAPSCSTSPSANNTGHDNVSPTNFLSRNQQQGQAASVSASDSVFERASNPVQELYTKTESRISQGMMNMKSAGEHFRFKSAVTDQIDVSTAGTTYCPDVVGPVQQQQTFPLPSFGFDGDCQSHHPRNNLAFPGNLEAVTSDPLYSQKDFQNLVPNYGNTPRDIETELSSAAISSQSFGIPSIPFKPGCSNEVGGINDSGIMNGGGLWPNQTQRMRTYTKVQKRGSVGRSIDVTRYSGYDELRHDLARMFGIEGQLEDPLTSDWKLVYTDHENDILLVGDDPWEEFVNCVQNIKILSSVEVQQMSLDGDLAAIPTTNQACSETDSGNAWKVHYEDTSAAASFNR
With B5 the binding [1] was “binds”.
